Data published in PubChem BioAssay AID624418 (National Center for Advancing Translational Sciences (NCATS), 2012).
Among all 410,000 compounds or so, about 530 (0.13%) were called active. Inconclusive results, whose numbers are uncertain, are shown with a selection of clear calls. Calls follow the shape of the dose curve; as a rule, active = well fitted inhibition curve with a large enough effect; inconclusive = small, poorly fitted or top-dose-only effect, or another doubt; inactive = no such curve, though single readings can be large or run the other way. Where the call is inconclusive, the potency comes from a doubtful curve fit.

assay: qHTS of GLP-1 Receptor Inverse Agonists: Cytotox Screen; conditions: HEK293 cAMP-luciferase reporter cells, luminescence, 24 h; activity change, negative = inhibition: at 38.3 µM (top of the series) unless noted
Procedure, shortened: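 MLSMR compounds, 24 hr on cells at 37 deg C/5% CO2; luminescence after luciferase reagent (12 min RT). Inhibition counted as the undesired cytotoxic outcome.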
% is scaled to controls: 0 for no effect and ±100 for the full control effect; potency is read from the fitted curve at half-maximal effect.

Row | SMILES | activity change, negative = inhibition | Potency
1 | O=C1c2[nH]nc(-c3ccc(F)cc3)c2C(c2ccccc2F)N1c1ccccc1 (stereo not drawn) | inactive: 8.54% | 
2 | O=c1[nH]c(CN2CCN(c3ccc(O)cc3)CC2)nc2scc(-c3ccc(Cl)cc3)c12 |  | inconclusive: 12.6 µM [inhibitor, partial curve, poor fit]
3 | COc1ccc(CN2CCC[C@]3(N[C@H](c4ccc(C(F)(F)F)cc4)[C@@H]4C(=O)N(C)C(=O)[C@@H]43)C2=O)cc1 |  | inconclusive: 28.2 µM [inhibitor, single point]
4 | CCOC(=O)COc1ccc(Br)cc1/C=C/c1[nH]c(=O)[nH]c(=O)c1[N+](=O)[O-] |  | inconclusive: 10 µM [inhibitor, single point]
5 | Cc1ccc(CS(=O)(=O)c2ncc(Cl)c(C(=O)Nc3nnc(C(C)C)s3)n2)cc1 |  | inconclusive: 11.2 µM [inhibitor, partial curve, poor fit]
6 | COc1cccc(CNC(=S)Nc2ccc(Cl)cc2C)c1 |  | inconclusive: 20 µM [inhibitor, single point]
7 | Cn1cnc([N+](=O)[O-])c1S(=O)(=O)c1ccc(Cl)cc1 |  | inconclusive: 10 µM [inhibitor, single point]
8 | Nc1nsc2ccccc12 |  | inconclusive: 5.62 µM [inhibitor, full curve, poor fit]
9 | COC(=O)c1sccc1S(=O)(=O)N(CC(=O)Nc1cccc(C)c1C)c1ccc(C)c(C)c1 | inactive: -16.6% | 
10 | Cc1ccn2c(NC3CCCC3)c(-c3ccncc3)nc2c1 | inactive: 5.52% | 
11 | c1ccn2cc(C34CC5CC(CC(C5)C3)C4)nc2c1 |  | inconclusive: 25.1 µM [inhibitor, single point]
12 | CC(=O)Nc1cccc(-c2ccnc3c2CC(C)(C(=O)Nc2ccc(Cl)cc2)O3)c1 (stereo not drawn) |  | inconclusive: 0.708 µM [inhibitor, full curve, poor fit]
13 | CN1/C(=C/c2cccc[n+]2C)Sc2ccccc21 |  | inconclusive: 20 µM [inhibitor, partial curve, poor fit]
14 | COc1ccc(Cl)cc1N1CCN(CCNC(=O)Nc2ccccc2C)CC1 |  | inconclusive: 10 µM [inhibitor, partial curve, poor fit]
15 | CC(=O)Nc1ccc2ccccc2c1[N+](=O)[O-] |  | inconclusive: 28.2 µM [inhibitor, single point]
16 | COc1ccc(-c2cnn3c(N)c(S(=O)(=O)c4ccccc4)cnc23)cc1 | inactive: 6.96% | 
17 | C/C(=N\NC(=S)NCc1ccccc1)c1ccc(Br)cc1 |  | inconclusive: 15.8 µM [inhibitor, partial curve, poor fit]
18 | CC(/C=C/c1ccc2c(c1)OCO2)=N/NC(=O)c1cccnc1 | inactive: -12.1% | 
19 | COc1ccccc1CN(C)C(=O)COC(=O)c1cc(C)oc1C | inactive: 3.43% | 
20 | CCn1c(O)c(N=NC2=NC(=O)CS2)c2cc(C)ccc21 |  | inconclusive: 10 µM [inhibitor, partial curve]
21 | Cc1ccc(C)c(SCC(=O)OC/C(O)=C(\C#N)c2nc3ccccc3[nH]2)c1 |  | inconclusive: 6.31 µM [inhibitor, partial curve, poor fit]
22 | Cc1cc2nc(N3C(=O)CNC3=S)sc2cc1C |  | inconclusive: 3.16 µM [inhibitor, full curve, poor fit]

Row | SMILES | activity change, negative = inhibition | Potency
23 | COc1cc(OC)cc(-c2oc(=O)c3cc(OC)c(OC)cc3c2C(F)(F)F)c1 |  | inconclusive: 10 µM [inhibitor, partial curve, poor fit]
24 | O=[N+]([O-])c1ccc(NNC(=S)Nc2ccc(F)cc2)cc1 |  | inconclusive: 10 µM [inhibitor, partial curve, poor fit]
25 | COc1cc(OC)cc(C(=O)N/N=C/c2ccc(OC)c(COc3ccc(F)cc3)c2)c1 |  | inconclusive: 1.58 µM [inhibitor, full curve]
26 | O=C(Nc1ccc(F)cc1F)C1CCCN1S(=O)(=O)c1ccc(-c2ccc(=O)[nH]n2)s1 (stereo not drawn) | inactive: 2.43% | 
27 | CCn1nc(C)c2c(-c3ccccc3)cc(=O)n(C(C)C(=O)NCCc3ccc(Cl)cc3)c21 (stereo not drawn) | inactive: 0.18% | 
28 | CCC(=O)NC(=S)N1CCN(c2ccc([N+](=O)[O-])cc2Cl)CC1 |  | inconclusive: 28.2 µM [inhibitor, single point]
29 | CN(C)c1ccc(C=c2c3ccccc3n3c2cc(-c2ccc(Cl)cc2)[n+]3C)cc1 |  | inconclusive: 7.94 µM [inhibitor, partial curve, poor fit]
30 | CC(=O)OCCCN(C)CC/C=C1/c2ccccc2CSc2ccccc21 |  | inconclusive: 11.2 µM [inhibitor, partial curve, poor fit]
31 | CNC(=S)N=Nc1c(O)[nH]c2ccccc12 |  | active: 11.2 µM
32 | CN(C)S(=O)(=O)c1ccc(C(=O)Nc2nc3ccccc3[nH]2)cc1 | inactive: -3.74% | 
33 | Cc1sc2ncnc(N3CCC(C(=O)N(C)CC(=O)Nc4ccccc4Br)CC3)c2c1C |  | inconclusive: 28.2 µM [inhibitor, single point]
34 | CC1(C)CC(=O)c2sc(NC(=O)CN3CCCCC3)nc2C1 | inactive: -10.9% | 
35 | CCOc1ccccc1N1CCN(C2=C(NS(=O)(=O)c3cccs3)C(=O)c3ccccc3C2=O)CC1 |  | inconclusive: 5.01 µM [inhibitor, partial curve]
36 | CCN1CCN(C(c2ccccc2Cl)c2sc3nc(-c4ccco4)nn3c2O)CC1 (stereo not drawn) | inactive: -25% | 
37 | CCOc1ccc(NC(=O)Cn2nc3c(cc2=O)CC(C)CC3)cc1 (stereo not drawn) | inactive: -5.93% | 
38 | COc1ccc2sc(-c3ccc(N(C)C)cc3)c(C#Cc3cncn3C)c2c1 | inactive: 106% | 
39 | CCOC(=O)c1ccc(NC(=O)NC2=NCCS2)cc1 |  | inconclusive: 0.501 µM [inhibitor, full curve, poor fit]
40 | Cc1ccc(C)c(N2CCN(C(=O)c3ccc(Cn4c(=O)[nH]c5ccccc5c4=O)cc3)CC2)c1 |  | inconclusive: 7.94 µM [inhibitor, partial curve]
41 | Cc1ccc2c(C)c(C(=O)N(Cc3ccc(N(C)C)cc3)Cc3ccco3)oc2c1C | inactive: 2.69% | 
42 | COc1ccc(OCC(O)Cn2c(=N)n(CCN3CCCCC3)c3ccccc32)cc1 (stereo not drawn) |  | inconclusive: 28.2 µM [inhibitor, single point]
43 | O=[N+]([O-])c1c(Nc2ccccn2)cc(Cl)c2nonc12 |  | inconclusive: 20 µM [inhibitor, single point]
